# Some of the results follow. Viral Rep nickase domains cut single-stranded DNA in vitro for 1 h at 37 °C with 3 µM enzyme; only the middle of the 90-letter strands is printed. Values are log2 of uncut reads against the no-enzyme pool; the lower, the more was cut; hits are not called. Because reads are shares of a total, they shift together; uncut strands gain when others are lost, and binding without cutting may add a little.
# Experiments:
# Assay in all cases: uncleaved DNA left, log2 of reads against the no-enzyme library (log2 ratio); higher = less cleavage (more negative = more Rep cleavage of the k-mer); sequences stand for … in CTCGTCCG…ACCGGAGA
# [1] = test system: T1, Rep nickase domain of Muscovy duck circovirus
# T1 sequence (Rep 1-111, printed without the tag): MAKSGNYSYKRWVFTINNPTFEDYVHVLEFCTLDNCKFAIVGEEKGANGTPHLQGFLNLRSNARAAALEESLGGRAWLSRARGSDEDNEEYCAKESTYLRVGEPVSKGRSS
# Protocol: (§1)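 A pool of 90-nt single-stranded DNAs with seven random bases just before the constant AC of the nick site (name = the seven bases) was cut by 3 µM recombinant His6-SUMO-tagged Rep nickase domain (300 nM DNA, 50 mM HEPES pH 8.0, 50 mM NaCl, 1 mM MnCl2, 1 h, 37 °C, three replicates). Uncut DNA was amplified and sequenced.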
# [2] = test system: T2, Rep nickase domain of banana bunchy top virus
# T2 sequence (Rep 1-94, printed without the tag): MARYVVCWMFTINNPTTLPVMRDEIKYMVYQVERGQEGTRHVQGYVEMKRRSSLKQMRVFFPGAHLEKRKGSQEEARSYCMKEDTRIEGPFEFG
# Protocol: as §1
# [3] = test system: T3, Rep nickase domain of cabbage leaf curl virus
# T3 sequence (Rep 1-116, printed without the tag): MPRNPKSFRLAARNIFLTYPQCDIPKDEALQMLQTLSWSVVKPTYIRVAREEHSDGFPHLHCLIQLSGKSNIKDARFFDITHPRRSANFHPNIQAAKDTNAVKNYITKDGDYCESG
# Protocol: as §1
# [4] = test system: T4, Rep nickase domain of chickpea chlorotic dwarf virus
# T4 sequence (Rep 1-124, printed without the tag): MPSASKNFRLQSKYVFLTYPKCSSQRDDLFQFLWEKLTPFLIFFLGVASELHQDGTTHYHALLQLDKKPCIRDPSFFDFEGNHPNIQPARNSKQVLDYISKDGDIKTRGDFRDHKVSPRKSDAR
# Protocol: as §1
# [5] = test system: T5, Rep nickase domain of faba bean necrotic yellows virus
# T5 sequence (Rep 1-98, printed without the tag): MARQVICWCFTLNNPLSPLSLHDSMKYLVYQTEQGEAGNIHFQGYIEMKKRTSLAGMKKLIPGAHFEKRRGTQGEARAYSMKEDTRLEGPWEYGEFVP
# Protocol: as §1
# [6] = test system: T6, Rep nickase domain of maize striate mosaic virus
# T6 sequence (Rep 1-117, printed without the tag): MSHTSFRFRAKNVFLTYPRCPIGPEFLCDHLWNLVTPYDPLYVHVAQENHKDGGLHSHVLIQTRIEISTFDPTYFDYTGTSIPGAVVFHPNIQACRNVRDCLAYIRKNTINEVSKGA
# Protocol: as §1
# [7] = test system: T7, Rep nickase domain of porcine circovirus 2
# T7 sequence (Rep 2-116, printed without the tag): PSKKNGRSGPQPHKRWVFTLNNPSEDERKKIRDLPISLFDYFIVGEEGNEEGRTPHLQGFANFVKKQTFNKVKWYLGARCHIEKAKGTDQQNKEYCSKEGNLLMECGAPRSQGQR
# Protocol: as §1
# [8] = test system: T8, Rep nickase domain of tomato golden mosaic virus
# T8 sequence (Rep 1-124, printed without the tag): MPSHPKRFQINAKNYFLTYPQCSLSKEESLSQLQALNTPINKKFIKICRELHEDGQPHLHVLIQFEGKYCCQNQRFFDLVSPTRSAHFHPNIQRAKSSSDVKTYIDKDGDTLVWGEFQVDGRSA
# Protocol: as §1
# [9] = test system: T9, Rep nickase domain of tomato yellow leaf curl virus
# T9 sequence (Rep 1-136, printed without the tag): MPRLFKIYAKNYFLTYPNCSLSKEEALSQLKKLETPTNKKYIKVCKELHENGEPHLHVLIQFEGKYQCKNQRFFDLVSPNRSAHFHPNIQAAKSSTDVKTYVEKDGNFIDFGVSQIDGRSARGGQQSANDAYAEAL
# Protocol: as §1
# [10] = test system: T10, Rep nickase domain of wheat dwarf virus
# T10 sequence (Rep 1-137, printed without the tag): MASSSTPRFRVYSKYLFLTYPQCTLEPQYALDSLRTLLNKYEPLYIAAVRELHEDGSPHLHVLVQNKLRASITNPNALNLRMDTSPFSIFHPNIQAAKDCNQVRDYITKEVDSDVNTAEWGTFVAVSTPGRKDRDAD
# Protocol: as §1
Sequence,uncleaved DNA left (log2) [1],uncleaved DNA left (log2) [2],uncleaved DNA left (log2) [3],uncleaved DNA left (log2) [4],uncleaved DNA left (log2) [5],uncleaved DNA left (log2) [6],uncleaved DNA left (log2) [7],uncleaved DNA left (log2) [8],uncleaved DNA left (log2) [9],uncleaved DNA left (log2) [10]
ATCTAAG,-0.0433,0.00105,-0.793,-0.277,0.0106,-1.33,0.125,-0.0461,0.0179,-0.024
GATACTG,0.0251,0.0742,0.11,0.971,0.0219,1.34,0.163,0.132,-0.00764,0.111
CATAGCC,0.0981,0.0853,-0.317,-0.36,0.0594,-1.1,0.193,0.0475,0.0937,-0.0413
TTTGGAC,0.0449,0.0838,0.29,1.18,0.03,1.29,0.152,0.0237,0.0284,0.135
GCTTGTA,-0.107,-0.0557,-0.0132,0.359,-0.0338,-0.0336,-0.218,-0.00586,-0.0985,0.00422
GCCTATG,-0.0819,0.116,-0.18,-0.0898,0.0364,-0.715,0.14,-0.0665,0.043,-0.028
GCGTTAT,-0.17,-0.255,-0.00768,-0.0363,-0.157,0.071,-1.83,-0.205,-0.2,-0.0631
AGTGCCT,-0.0278,0.00265,0.0945,0.0845,-0.0672,0.732,-2.16,-0.000116,-0.0384,-0.00785
CCGGCGC,0.0449,-0.208,-0.597,-0.456,-0.0655,-0.396,0.0636,-0.104,-0.105,-0.232
ATTCTCC,0.0485,0.0219,0.0489,0.538,0.138,1.18,0.0934,0.0777,0.0266,0.067
GGTAGGA,0.15,0.184,0.621,1.06,0.245,1.28,0.255,0.115,0.0977,0.232
TCAAGGC,0.00503,-0.0718,0.0836,0.399,-0.0937,-0.187,0.109,-0.0249,-0.154,-0.0736
GTTGCCA,-0.0323,-0.0393,0.231,0.835,-0.0282,1.39,0.0519,0.0713,0.00358,0.0275
GTTTCCG,-0.0296,-0.0825,-0.404,-0.597,-0.054,-0.785,0.00522,-0.0655,-0.0318,-0.13
AGGGGAA,0.165,0.0148,0.407,1.38,-0.0393,1.71,0.112,0.0772,-0.0447,0.126
CACACGC,-0.102,-0.0297,-0.232,-0.478,-0.00826,-1.01,0.0846,-0.0433,-0.0128,-0.0884

Sequence,uncleaved DNA left (log2) [1],uncleaved DNA left (log2) [2],uncleaved DNA left (log2) [3],uncleaved DNA left (log2) [4],uncleaved DNA left (log2) [5],uncleaved DNA left (log2) [6],uncleaved DNA left (log2) [7],uncleaved DNA left (log2) [8],uncleaved DNA left (log2) [9],uncleaved DNA left (log2) [10]
ATGGTGA,0.0432,-0.0406,0.0102,-0.0105,0.0151,-0.418,0.204,0.146,0.0532,-0.003
GTACTTA,0.0115,-0.062,0.279,0.642,-0.0675,1.56,-0.055,0.00382,0.0787,0.0296
TAAGGGA,0.0779,0.102,0.28,0.83,0.058,0.963,0.0867,0.166,-0.0732,0.0565
GCTTTGC,-0.157,0.0872,-0.767,-0.456,0.0974,-1.03,0.211,-0.0694,0.139,-0.0373
AGTAAGC,0.0946,-0.0154,-0.0283,-0.174,0.0964,-0.849,0.187,0.0688,-0.00935,-0.0235
GGAAGGT,0.155,0.105,0.605,1.41,0.0642,1.97,0.202,0.051,0.0511,0.146
CGCGACT,0.0256,0.117,0.00651,0.584,0.115,1.59,0.0927,0.0892,-0.0353,0.142
CGCATTA,0.076,0.0858,-0.169,-0.798,0.0227,-0.539,0.00159,-0.0129,0.238,0.0512
AACCGTG,0.124,0.0405,-0.552,-0.683,0.0638,-0.97,-0.12,0.103,0.0826,-0.146
GGCATAT,0.0802,0.0322,0.707,1.72,-0.103,2.11,0.132,-0.0788,0.0723,0.147
CTTTTAC,-1.17,-0.0412,-0.37,-2.09,-0.0543,-0.769,-1.6,-0.085,0.0644,-0.063
AAATGTT,-4.03,-3.7,-4.88,-3.47,-1.32,-3.68,-4.9,-4.13,-3.66,-4.41
TCGGACC,0.00584,0.0873,0.221,0.831,-0.0578,0.873,0.142,0.146,-0.011,0.181
CTTGATG,0.046,0.168,-0.49,-0.47,0.0278,-1.03,0.068,-0.0785,0.033,-0.03
GCCTCCG,-0.0821,-0.127,-0.668,-0.473,-0.0658,-0.89,0.0214,-0.0753,0.0132,-0.229
